Laboratory results taken from publication PMC4336329 (PLoS ONE, 2015).
Out of some 310,000 compounds screened, about 14,000 (4.5%) showed an effect of 50% or more. The effect is printed as a negative number. The list shows a part of the results.

target: human ether-à-go-go-related gene (hERG) potassium channel (human, UniProt Q12809); assay: primary screen, population patch clamp on CHO cells stably expressing hERG
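Also: peak tail current of the secondary pulse compared with the same well before compound.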

Sequence of human ether-à-go-go-related gene (hERG) potassium channel (Q12809 whole entry, looked up): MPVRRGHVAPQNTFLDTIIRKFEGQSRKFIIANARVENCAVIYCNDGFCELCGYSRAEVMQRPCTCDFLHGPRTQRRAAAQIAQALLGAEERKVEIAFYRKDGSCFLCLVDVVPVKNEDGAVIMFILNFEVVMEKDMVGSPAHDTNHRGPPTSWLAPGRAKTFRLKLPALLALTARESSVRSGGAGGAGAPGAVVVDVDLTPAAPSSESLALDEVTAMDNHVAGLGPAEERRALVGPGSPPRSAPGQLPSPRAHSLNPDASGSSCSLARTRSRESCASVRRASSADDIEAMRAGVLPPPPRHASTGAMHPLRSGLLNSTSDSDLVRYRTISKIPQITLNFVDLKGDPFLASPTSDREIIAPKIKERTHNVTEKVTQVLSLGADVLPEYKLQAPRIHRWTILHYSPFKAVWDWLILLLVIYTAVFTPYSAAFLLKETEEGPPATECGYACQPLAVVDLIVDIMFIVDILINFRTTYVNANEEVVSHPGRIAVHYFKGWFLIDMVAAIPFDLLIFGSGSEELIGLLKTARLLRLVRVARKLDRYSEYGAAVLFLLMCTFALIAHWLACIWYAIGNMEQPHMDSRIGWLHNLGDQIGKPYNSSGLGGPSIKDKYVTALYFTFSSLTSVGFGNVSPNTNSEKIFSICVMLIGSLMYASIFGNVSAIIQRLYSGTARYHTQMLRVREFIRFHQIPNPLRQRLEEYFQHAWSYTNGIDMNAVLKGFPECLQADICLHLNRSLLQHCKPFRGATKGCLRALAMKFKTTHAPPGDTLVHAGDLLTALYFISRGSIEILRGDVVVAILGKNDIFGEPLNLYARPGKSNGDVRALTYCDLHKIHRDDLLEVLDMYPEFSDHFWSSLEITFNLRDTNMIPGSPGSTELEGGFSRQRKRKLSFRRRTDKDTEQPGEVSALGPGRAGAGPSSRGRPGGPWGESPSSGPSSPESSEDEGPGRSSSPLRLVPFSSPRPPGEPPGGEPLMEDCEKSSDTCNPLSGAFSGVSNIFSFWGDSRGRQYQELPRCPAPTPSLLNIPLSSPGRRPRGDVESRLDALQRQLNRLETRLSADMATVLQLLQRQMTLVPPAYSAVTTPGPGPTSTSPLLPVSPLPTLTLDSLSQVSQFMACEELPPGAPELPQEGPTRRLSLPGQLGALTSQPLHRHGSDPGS

SMILES	hERG current change (%, negative = inhibition) at 10uM
Cc1cccc(C)c1NC(=S)NC(=O)c1ccccc1F	0.697%
Cc1ccc(C(=O)Nc2cccc(-c3nc4ncccc4o3)c2)cc1	6.79%
COc1cccc2cc(-c3cc(=O)oc4ccc(O)cc34)oc12	6.22%
COC(=O)Cc1nnc(Nc2cccc(C)c2)c2ccccc12	-6.22%
CN1CCN(NC(=O)Nc2ccc(Br)cc2)CC1	-20.6%
COC(=O)C(Cc1ccc(OC(=O)c2ccc(C)cc2)cc1)N1Cc2ccccc2C1=O (centres unmarked)	-9.91%
Nc1ncn(C(=O)c2ccco2)n1	14.5%
O=C(CCNC(=O)c1ccc(Br)cc1)NCc1ccncc1	-13.8%
Cc1noc(C(=O)Nc2cccnc2)c1Cl	20.2%
O=C(Cc1noc2ccccc12)Nc1ccc(Cl)cc1	-10.8%
CCc1ccc(NC(=O)Cn2cnc3sc(C)c(S(=O)(=O)N4CCOCC4)c3c2=O)cc1	-21.5%
CCC(C)(C)C1CCC(=NNC(=S)Nc2ccccc2)CC1 (centres unmarked)	11.4%
Cc1ccc(NC(=O)c2oc3ccccc3c2C)c([N+](=O)[O-])c1	12.9%
CC1CCCC(NC(=O)c2cccs2)C1C (centres unmarked)	11.1%
O=C(NCCO)C(=O)NCC1OCCCN1S(=O)(=O)c1cccs1 (centres unmarked)	-26.7%
COc1ccccc1CNC(=O)Cc1ccc(OC)c(OC)c1	13%
O=C(COC(=O)c1ccccc1C(=O)c1ccc(Cl)cc1)NC(c1ccccc1)c1ccccc1	24.1%
O=C(CNC(=S)N(Cc1ccc(F)cc1)C1CCCCC1)NC1CC1	-37.2%
Cc1nn(CC(=O)NCCc2ccccc2)c(C)c1[N+](=O)[O-]	-0.47%
CCNC(=S)N/N=C(\C)c1cccc([N+](=O)[O-])c1	-45.9%
CCCSc1nc2cc(OC)c(OC)cc2c(=N)n1CCCN1CCOCC1	-74.6%
O=C(COC(=O)C(Cc1ccccc1)NC(=O)c1cccs1)NCc1ccccc1 (centres unmarked)	-2.93%
COc1ccc(CNC(=O)Nc2ccccc2)cc1	-18.9%

SMILES	hERG current change (%, negative = inhibition) at 10uM
N#C/C(=C\c1c[nH]c2ccccc12)C(N)=O	10.4%
Nc1ccccc1SC/C=C/CSc1ccccc1N	10.8%
CCCn1c(O)c(N=NC(=O)CNC(=O)c2cccnc2)c2ccccc21	-13.9%
COCCN(CC1CCCN(C2Cc3ccccc3C2)C1)C(=O)CCC(C)=O (centres unmarked)	-6.4%
O=C(Nc1scc(-c2ccccc2)c1C(=O)O)c1ccccc1Cl	1.18%
Cc1nnc(SCC(=O)N2c3ccccc3Sc3ccccc32)n1N	7.29%
Cc1cccc(OCc2nc(C#N)c(NCCN(C)C)o2)c1	-32.8%
CCC(CC)C(=O)N(c1ccc(F)cc1)C1C=CS(=O)(=O)C1 (centres unmarked)	-3.34%
O=C(OCc1ccc([N+](=O)[O-])cc1Cl)c1cnccn1	13.7%
Cc1cccc(-c2nc(C#N)c(NC3CCCCC3)o2)c1	3.76%
O=C(Nc1nccs1)c1ccc(COc2c(F)c(F)cc(F)c2F)o1	1.26%
CCCCc1cc(=O)oc2c(C)c(OCC(=O)N3CCC(C(N)=O)CC3)ccc12	-16.7%
CC1CN(S(=O)(=O)c2cccc(C(=O)N(C)C3CCN(C)CC3)c2)CC(C)O1.Cl (centres unmarked)	-3.74%
O=C(CCc1ccccc1)NCC(=O)N/N=C/c1ccc(O)cc1O	-8.41%
COc1ccc(CNC(=O)CSc2nnc(Cn3nnc4ccccc43)n2C)cc1	3.8%
COc1cccc(CC(=O)Nc2nc(-c3cc(OC)ccc3OC)cs2)c1	4.24%
CCOC(=O)C1CCCN(C(=O)C2CCN(C(=O)Nc3ccccc3)CC2)C1 (centres unmarked)	7.92%
COc1cccc2cc(C(=O)OCc3ccccc3)c(=O)oc12	6.63%
CC(=O)N1CCOCCOCCN(C(C)=O)CCOCCOCC1	31.6%
C=CCSc1nc2sc3c(c2c(=O)n1CC)CCc1ccccc1-3	15.3%
CC(C)(C)c1cn(-c2ccc(Cl)cc2)c(=S)[nH]1	4.22%
CCOC(=O)/C(C#N)=C/NC(=O)NC(C)(C)C	4.11%
CCC(C)Cn1c(S(=O)(=O)O)nc2ccccc21 (centres unmarked)	13%

SMILES	hERG current change (%, negative = inhibition) at 10uM
O=C1Nc2ccc([N+](=O)[O-])cc2OC1CCN1CCN(c2ccccc2)CC1 (centres unmarked)	-47.4%
CCCCC(=O)Nc1ccc(C(=O)N2CCC(C(=O)OCC)CC2)cc1	3.61%
CC(=O)c1ccc(NC(=O)CCc2ccc(C)o2)cc1	-0.137%
O=C1c2cccnc2C(=O)N1Cc1ccc(F)cc1	-7.08%
CC(=NCCN1CCCCC1)c1c(O)n(-c2ccccc2)c(=O)[nH]c1=O	10.9%
Cc1cccc(C)c1N1CCN(C(=O)Nc2ccc3c(c2)OCCO3)CC1	-7.07%
CC1=CC(C)(C)N(C(=O)CCl)c2ccccc21	-39.7%
O=C(NC(=S)N1CCCC(C(F)(F)F)C1)c1ccc(F)cc1 (centres unmarked)	10.7%
COc1ccc(-c2cc(C(F)(F)F)nc(NCc3ccco3)n2)cc1OC	14.4%
CN(C)S(=O)(=O)c1ccc(N2CCCC2)c(C(=O)OCC(=O)NC2(C#N)CCCCC2)c1	4.54%
CCCNC(=O)C1CCN(c2nc(C)cc(C)n2)CC1	0.749%
Cc1cc[n+](CCc2ccccc2)cc1C.[Br-]	18.3%
CCOc1ccccc1NC(=O)Nc1ccon1	6.44%
Cn1c(N)c(C(=O)COC(=O)c2ccc(Br)o2)c(=O)n(C)c1=O	-15.4%
CCC(=O)N(NC1=NS(=O)(=O)c2ccccc21)S(=O)(=O)c1ccc(C)cc1	15.5%
CC(C)CCN1CCNC(=O)C1CC(=O)NCCCN1CCOCC1 (centres unmarked)	10.4%
N/C(=N\OC(=O)COc1ccc(Cl)cc1)c1cccnc1	2.03%
CSc1nsc(/C=C/Nc2ccc(C(=O)O)cc2)c1C#N	4.76%
COc1cc2c(c(OC)c1)C(c1ccncc1)CC(=O)N2 (centres unmarked)	9.02%
COc1ccc(CNC(=O)CNC(C)c2ccc(F)cc2)cc1.O=C(O)C(=O)O (centres unmarked)	5.06%
CN(C)c1ccc(CN(C(=O)/C=C/c2ccccc2Cl)C2CCS(=O)(=O)C2)cc1 (centres unmarked)	-5.17%
Cc1cccc(-n2c(Cc3cc(=O)[nH]c(=O)[nH]3)nnc2SC(C)C)c1	16.6%
CCC1(CC)C(=O)N(Cc2ccccc2)C(=O)N(Cc2ccccc2)C1=O	0.244%

SMILES	hERG current change (%, negative = inhibition) at 10uM
O=C(Cc1ccccc1)NNC1CC(=O)N(c2ccc(Oc3ccccc3)cc2)C1=O (centres unmarked)	6.28%
CCn1c2ccccc2c2cc(NC(=O)C3CCN(S(=O)(=O)c4cccs4)CC3)ccc21	3.39%
C=CC(C)(C)c1cc2cc3ccoc3cc2oc1=O	0.459%
CN(C)S(=O)(=O)c1cccc(C(=O)OCC(=O)NCc2ccc3c(c2)OCO3)c1	-8.53%
C=CC(=O)N1c2ccccc2Sc2ccc(NC(=O)OCC)cc21	0.408%
CCC(CC)C(=O)Nc1cc(Cl)ccc1C	2.41%
COc1ccc(CN(C)C(=O)c2ccc3c(=O)n4c(nc3c2)CCC4)cc1	13.7%
CCc1ccc(/C=N/NC(=O)c2nnn(-c3nonc3N)c2CN2CCOCC2)cc1	-11.6%
CC1(C)c2[nH]c3ccccc3c2C[C@H]2C(=O)N(Cc3ccccc3F)C(=O)N21	15.7%
COc1ccc(NC(=O)CN2CCOCC2)cc1.O=C(O)C(=O)O	13%
O=C(O)CS(=O)(=O)CC(=O)NCc1cccc(C(F)(F)F)c1	-2.59%
CCCCCOc1ccc(N2C(=O)C(C)CNC2=S)cc1 (centres unmarked)	5.61%
Cc1cc(C)cc(N(CC(=O)NCc2ccco2)S(=O)(=O)c2c(C)noc2C)c1	-26.3%
CSc1nc2ncnc(N)c2[nH]1	7.32%
Cl.OC(CN1C2=NCCCN2c2ccccc21)c1ccc(Cl)cc1 (centres unmarked)	-75.9%
Cc1ccc(C)c(OCc2cc(C(=O)N3CCN(C(=O)c4ccco4)CC3)no2)c1	-10.7%
O=C(NCc1ccccc1C(F)(F)F)C1CC(c2ccccc2[N+](=O)[O-])=NO1 (centres unmarked)	-29.2%
COc1ccc(Cl)cc1C(=O)O/N=C(\N)c1ccncc1	-7.86%
C=CCNC(=O)c1cc(Cl)ccc1[N+](=O)[O-]	10.3%
Cc1cccc(NC(=O)Cn2c(=O)n(Cc3ccccc3)c(=O)c3c(C)c(C)sc32)c1	-8.78%
COCCN(Cc1cn[nH]c1-c1ccc2cc(OC)ccc2c1)C(C)C	-39%
COc1ccc(S(=O)(=O)NC(CC(=O)NCc2ccc3c(c2)OCO3)c2ccco2)cc1 (centres unmarked)	5.74%
CCc1sc(C(=O)NCCCn2ccnc2)cc1Br	-14.5%
